Measurements as given in PubChem BioAssay (NCATS).
Inconclusive means that the source gave no clear call. Such entries were picked first, then a sample of the others. For some of these results: Potencies beside an inconclusive call are fits to weak or partial responses and may not hold up. The source made the active and inactive calls. Unless noted, calls follow the shape of the dose curve; as a rule, active = well fitted curve in the direction sought with a large enough effect; inconclusive = small, poorly fitted or top-dose-only effect, or another doubt; inactive = no such curve, though single readings can be large; an effect the other way counts as inactive or inconclusive.

Columns and labels:
[1] = target: Aldehyde dehydrogenase, mitochondrial (Homo sapiens) (UniProt P05091); test: qHTS for Inhibitors of the Aldehyde Dehydrogenase Family (ALDH2) Confirmatory screens (AID 2061303; active = well fitted inhibition curve with a large enough effect; inconclusive = small, poorly fitted or top-dose-only effect; inactive = no such curve, though single readings can be large or run the other way; title and protocol of this record describe different tests; also: nearly all actives have a fitted effect of over 45% in size; also: potency is read from the fitted curve at half-maximal effect; as to activity change, negative = inhibition: % is scaled to controls: 0 for no effect and ±100 for the full control effect); conditions: ALDH inhibition qHTS; activity change, negative = inhibition: at 45.4 µM (top of the series)
[2] = target: Retinaldehyde dehydrogenase 3 (Homo sapiens) (UniProt P47895); test: qHTS for Inhibitors of the Aldehyde Dehydrogenase Family (ALDH1A3) Confirmatory screens (AID 2061311); conditions: activity change, negative = inhibition: at 46 µM (top of the series); also: nearly all actives have a fitted effect of over 60% in size; also: potency is read from the fitted curve at half-maximal effect; as to activity change, negative = inhibition: % is scaled to controls: 0 for no effect and ±100 for the full control effect
[3] = target: Aldehyde dehydrogenase 1A1 (Homo sapiens) (UniProt P00352); test: qHTS for Inhibitors of the Aldehyde Dehydrogenase Family (ALDH1A1) Confirmatory screens (AID 2061316); conditions: activity change, negative = inhibition: at 47.3 µM (top of the series); also: nearly all actives have a fitted effect of over 65% in size; also: potency is read from the fitted curve at half-maximal effect; as to activity change, negative = inhibition: % is scaled to controls: 0 for no effect and ±100 for the full control effect
[4] = target: Retinal dehydrogenase 2 (Homo sapiens) (UniProt O94788); test: qHTS for Inhibitors of the Aldehyde Dehydrogenase Family (ALDH1A2) Confirmation screens (AID 2061314); conditions: activity, negative = inhibition: at 45.9 µM (top of the series) unless noted; also: nearly all actives have a fitted effect of over 65% in size; also: potency is read from the fitted curve at half-maximal effect; as to activity, negative = inhibition: % is scaled to controls: 0 for no effect and ±100 for the full control effect
[5] = target: Retinaldehyde dehydrogenase 3 (Homo sapiens) (UniProt P47895); test: qHTS for Inhibitors of the Aldehyde Dehydrogenase Family (ALDH1A3) Primary screen (AID 2061315); conditions: ALDH inhibition qHTS; activity change, negative = inhibition: at 56 µM (top of the series) unless noted; also: potency is read from the fitted curve at half-maximal effect;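 as to activity change, negative = inhibition: plate controls were DMSO vehicle for no effect and reference inhibitor for full effect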
[6] = BET inhibitor-based combinations targeting novel dependencies in MECOM-rearranged (r) AML: OCI-AML3 cell line (AID 2202232); conditions: CellTiter-Glo luminescence, 48 h; Potency: OCI-AML3 viability; viability (% of control): at 46 µM (top of the series);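 also: plate controls were DMSO vehicle wells for no effect and wells without cells for full effect; nearly all actives have a fitted effect of over 35% in size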
In short: (§1)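 500 cells/well; 11-pt dose curve; 48 h, standard incubator; CellTiter-Glo luminescence after 15 min RT; DMSO/empty-well normalization; AUC plus Z-AUC (mean-centered within each line).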

[7] = BET inhibitor-based combinations targeting novel dependencies in MECOM-rearranged (r) AML: AML-191 cell line (AID 2202236;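 also: plate controls were vehicle wells for no effect and wells without cells for full effect; nearly all actives have a fitted effect of over 35% in size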)
In short: as §1

[8] = BET inhibitor-based combinations targeting novel dependencies in MECOM-rearranged (r) AML: AML-194 cell line (AID 2202237;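 also: plate controls were vehicle wells for no effect and wells without cells for full effect; nearly all actives have a fitted effect of over 40% in size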)
In short: as §1
Tags tell the direction and shape of the fitted curve.

## NC1CCN(c2nc(-c3ccc(Br)cc3)cs2)CC1
[1]
  Potency: inactive
[2]
  Potency: inconclusive: 25.2 µM [inhibitor, partial curve, poor fit]
[3]
  Potency: inactive

## COc1ccc(C2Nc3ccccc3C(=O)N2Cc2ccccc2)cc1COc1cccc(Cl)c1 (configuration not stated)
[1]
  Potency: active: 5.01 µM
[2]
  Potency: inconclusive: 14.2 µM [inhibitor, partial curve]
[4]
  Potency: inconclusive: 14.2 µM [inhibitor, partial curve]
[3]
  Potency: inactive

## COc1cc2ncnc(N(C)Cc3csc(C)n3)c2cc1-c1ccc2c(c1)OCO2
[1]
  Potency: inconclusive: 22.5 µM [inhibitor, partial curve, poor fit]
[2]
  Potency: inconclusive: 25.2 µM [inhibitor, partial curve]
[5]
  Potency: inactive
[3]
  Potency: inconclusive: 17.9 µM [inhibitor, partial curve]

## CCc1ccc(/C=C2/SC(=S)NC2=O)cc1
[1]
  Potency: inconclusive: 17.9 µM [inhibitor, partial curve]
[2]
  Potency: inactive
[3]
  Potency: inconclusive: 12.7 µM [inhibitor, partial curve]
[6]
  Potency: inactive
[7]
  Potency: inactive
[8]
  Potency: inactive

## Cc1nc2ccc(Nc3nc(Nc4c(C)cc(C=CC#N)cc4C)nc4nc[nH]c34)cc2s1
[1]
  Potency: inactive
[2]
  Potency: inactive
[3]
  Potency: inconclusive: 20.1 µM [inhibitor, partial curve]

## Cc1ccc(Cl)cc1NS(=O)(=O)c1cc2c(cc1F)NC(=O)CC2
[1]
  Potency: active: 12.6 µM
[2]
  Potency: active: 12.6 µM
[4]
  Potency: inconclusive: 4 µM [inhibitor, partial curve]
[3]
  Potency: inconclusive: 3.18 µM [inhibitor, full curve]

## COc1ccc(S(=O)(=O)N(CC(=O)Nc2cccc(C(F)(F)F)c2)c2ccc(C)cc2)cc1
[1]
  activity change, negative = inhibition: inconclusive: -48.3% [inhibitor]
[4]
  Potency: inconclusive: 6.31 µM [inhibitor, full curve]

## CN(CC(=O)Nc1ccc(OC(F)(F)F)cc1)S(=O)(=O)c1ccc2c(c1)CCC(=O)N2
[1]
  Potency: inconclusive: 11.2 µM [inhibitor, partial curve]
[4]
  Potency: inactive

## COc1ccc(C2Nc3ccccc3C(=O)N2CCc2ccc(Cl)cc2Cl)cc1COc1ccc(NC(C)=O)cc1 (configuration not stated)
[1]
  Potency: inconclusive: 20 µM [inhibitor, partial curve, poor fit]
[2]
  Potency: inconclusive: 14.1 µM [inhibitor, full curve, poor fit]
[4]
  Potency: inconclusive: 11.2 µM [inhibitor, full curve]
[3]
  Potency: inconclusive: 22.5 µM [inhibitor, partial curve]

## Cc1cc2c(s1)c(C=O)c(C(=O)NCc1ccccc1F)n2C
[1]
  Potency: inactive
[2]
  Potency: inconclusive: 22.5 µM [inhibitor, partial curve]
[3]
  Potency: inconclusive: 5.04 µM [inhibitor, full curve]

## COc1cc(C[C@H]2C(=O)OC[C@@H]2Cc2ccc(OC)c(OC)c2)ccc1O
[1]
  Potency: inconclusive: 0.398 µM [inhibitor, full curve]
[2]
  Potency: inconclusive: 15.6 µM [inhibitor, partial curve, poor fit]
[4]
  Potency: inconclusive: 3.5 µM [inhibitor, full curve]
[3]
  Potency: inconclusive: 14.1 µM [inhibitor, partial curve]

## FC(F)(F)c1ccc(-c2ccc(CNc3nc(-c4ccccc4C(F)(F)F)nc4ccccc34)cc2)cn1
[1]
  Potency: inconclusive: 25.2 µM [inhibitor, partial curve]
[2]
  Potency: inconclusive: 14.1 µM [inhibitor, partial curve]
[4]
  Potency: active: 25.2 µM
[3]
  Potency: active: 7.98 µM

## COC(=O)C1=COC(OC2OC(CO)C(O)C(O)C2O)C2C(COC(=O)/C=C/c3ccc(O)c(O)c3)C(O)C(O)C12 (configuration not stated)
[1]
  Potency: inconclusive: 7.49 µM [inhibitor, partial curve, poor fit]
[2]
  Potency: inconclusive: 10.6 µM [inhibitor, single point]
[5]
  Potency: inconclusive: 3.98 µM [inhibitor, partial curve]
[3]
  Potency: inactive

## c1cncc(CNc2ncnc3ccc(-c4ccoc4)cc23)c1
[1]
  Potency: inactive
[2]
  Potency: inactive
[3]
  Potency: inconclusive: 12.7 µM [inhibitor, partial curve]

## CCOc1ccc(NC(=O)c2cc(S(=O)(=O)N3CCOCC3)ccc2F)cc1
[1]
  Potency: inconclusive: 7.08 µM [inhibitor, full curve, poor fit]
[4]
  Potency: inconclusive: 7.94 µM [inhibitor, partial curve, poor fit]
